In all, about 94,000 compounds went through this assay and about 6,200 (6.6%) were called active. The inconclusive results got no clear call from the source; some entries with a clear call stand among them for comparison. The call rests on the fitted dose curve; in most records, active means well fitted inhibition curve with a large enough effect; inconclusive means small, poorly fitted or top-dose-only effect; inactive means flat fitted curve, though single readings scatter. A potency beside an inconclusive call is a rough fit, not a confirmed value.
Assay: Cytotoxic Profiling in HEK 293 Cell Line of Diverse Libraries Using Quantitative High-Throughput Screening; further: nearly all actives have a fitted effect of over 60% in size
Settings: HEK 293 viability, ATP luminescence (CellTiter-Glo), 48-72 h; series mostly up to 115 µM
Outline: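 CellTiter-Glo luminescence (cellular ATP) was read after 48 or 72 hr of compound exposure at 37 degree Celsius. Cells were HEK 293 plated at 250 cells/well.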
Potency means the concentration at half of the fitted maximal effect; tags describe the fitted curve by direction and shape.

**Q.** With CCOc1ccc(NC(=O)COc2cccc(-c3nnc4n3CCCC4)c2)cc1 as the compound, how does the Potency read?
**A.** inactive

**Q.** With O=C(Cc1c[nH]c2ncc(-c3ccccc3F)cc12)N1CCOCC1 as the compound, how does the Potency read?
**A.** inconclusive: 89.1 µM [inhibitor, partial curve]

**Q.** Which Potency does the source give for CS(=O)(=O)N1CCC(C2CCN(C(=O)CC3=CCCCC3)C2)CC1 (configuration not stated) here?
**A.** inconclusive: 79.4 µM [inhibitor, single point]

**Q.** Which Potency does the source give for COc1cccc(-c2cc(C(=O)NCCCNC(=O)OC(C)(C)C)c3cnn(C)c3n2)c1 here?
**A.** inconclusive: 50.1 µM [inhibitor, partial curve, poor fit]

**Q.** With COc1cccc(CN2CC(Oc3ccccc3C(=O)NC3CC3)C2)c1 as the compound, how does the Potency read?
**A.** inconclusive: 79.4 µM [inhibitor, partial curve, poor fit]

**Q.** With Cc1ccccc1-c1cnc2[nH]cc(CC(=O)NCc3ccccc3)c2c1 as the compound, how does the Potency read?
**A.** inconclusive: 25.1 µM [inhibitor, full curve]

**Q.** Which Potency does the source give for CCCCOC(=O)N1CC(=O)N(Cc2ccco2)CC(O)C1 (configuration not stated) here?
**A.** inconclusive: 100 µM [inhibitor, single point]

**Q.** For COc1cccc(CNC(=O)C2CCN(C(=O)c3ncn4c3COC(c3ccccc3)C4)CC2)c1 (configuration not stated), which Potency is on record?
**A.** inactive

**Q.** Which Potency does the source give for Cc1nn2c(c1-c1cccnc1N1CCOCC1)N(C(=O)Cc1cccc(Cl)c1)CCC2 here?
**A.** inactive

**Q.** With COc1ccccc1-c1nnc2ccc(C(=O)N3CCN(C)CC3)cn12 as the compound, how does the Potency read?
**A.** inactive

**Q.** For CCn1cc(C(=O)N2C[C@@H](COC)[C@H](c3ccccn3)C2)cn1, which Potency is on record?
**A.** inactive

**Q.** Which Potency does the source give for O=C(CNC(=O)c1ccc(-c2cnc3ccccc3c2)cc1)NCc1ccc(Cl)cc1 here?
**A.** inactive

**Q.** For COc1ccc(C(=O)NC2CCN(c3nccc(Nc4ccccc4OC)n3)CC2)cc1, which Potency is on record?
**A.** inactive

**Q.** For Cc1cc(OCC(=O)c2ccc3c(c2)N(CC(=O)NCC2CC2)C(=O)CO3)ccc1Cl, which Potency is on record?
**A.** inconclusive: 56.2 µM [inhibitor, partial curve, poor fit]

**Q.** With CN1CCCCC12Cc1ccccc1CN(C(=O)c1ccccc1)C2 (configuration not stated) as the compound, how does the Potency read?
**A.** inconclusive: 89.1 µM [inhibitor, partial curve]

**Q.** Which Potency does the source give for CCOCC(=O)N1CCc2nc3cc(-c4ccc(OC)cc4)[nH]n3c(=O)c2C1 here?
**A.** inconclusive: 79.4 µM [inhibitor, single point]

**Q.** For CC(C)(C)c1ccc(C(=O)N2CCC(c3n[nH]c(=O)n3-c3ccccc3)CC2)cc1, which Potency is on record?
**A.** inconclusive: 89.1 µM [inhibitor, single point]

**Q.** Which Potency does the source give for COCCCn1c(=O)c(C(=O)Nc2ccc(F)cc2)nc2cccnc21 here?
**A.** inconclusive: 100 µM [inhibitor, partial curve]

**Q.** For Cc1nonc1CC(=O)N[C@@H]1COCC[C@@H]1OCc1cscn1, which Potency is on record?
**A.** inactive

**Q.** For Fc1ccc(-c2ccc3ncc(Nc4ccnc(N5CCOCC5)c4)n3n2)cc1, which Potency is on record?
**A.** active: 31.6 µM

**Q.** For O=C(C1CCCN1C(=O)Nc1ccc(Cl)cc1)N1CCC(c2nc3ccncc3[nH]2)C1 (configuration not stated), which Potency is on record?
**A.** inactive

**Q.** Which Potency does the source give for CC(C)=CCN1CCNC(=O)C1CC(=O)NC(C)(C)c1cccc2ccccc12 (configuration not stated) here?
**A.** inconclusive: 56.2 µM [inhibitor, partial curve, poor fit]

**Q.** For O=C(CN1C(=O)C(c2ccccc2)=NC12CCCCC2)NC1CCCC1, which Potency is on record?
**A.** active: 28.2 µM

**Q.** Which Potency does the source give for C=CCOc1c(OC)ccc2c1CN(CC1CC1)C(=O)CCN2CC(O)COC(C)(C)C (configuration not stated) here?
**A.** inconclusive: 89.1 µM [inhibitor, single point]

**Q.** Which Potency does the source give for CCc1cnc(C)nc1N1CCCn2nc(CCC(=O)NC3CC3)cc2C1 here?
**A.** inactive

**Q.** With COc1ncccc1-c1csc(CN2CCCC(C)(NC(C)=O)C2)c1 (configuration not stated) as the compound, how does the Potency read?
**A.** inconclusive: 100 µM [inhibitor, partial curve]

**Q.** For COCCCn1c(=O)c(C(=O)N2CCC(Cc3ccccc3)CC2)nc2cccnc21, which Potency is on record?
**A.** inconclusive: 56.2 µM [inhibitor, partial curve, poor fit]

**Q.** With CNc1nc(N2CC[C@H](N3CCN(C)CC3)[C@H](CCC(=O)O)C2)ncc1F as the compound, how does the Potency read?
**A.** inactive

**Q.** Which Potency does the source give for O=C1CCCCCN1C1CCN(Cc2ccccn2)CC1 here?
**A.** inactive

**Q.** With Cc1cc(NC(=O)C2CCN(C(=O)c3ncn4c3COC(c3ccc(F)cc3)C4)CC2)ccc1Cl (configuration not stated) as the compound, how does the Potency read?
**A.** inactive

**Q.** With Cc1cn2nnc(C(=O)NC3CCCCCCC3)c2c(=O)[nH]1 as the compound, how does the Potency read?
**A.** inactive

**Q.** With CCCN(C)C(=O)c1ccc(-c2nnc3ccc(NC(=O)C4CCC4)cn23)cc1 as the compound, how does the Potency read?
**A.** inconclusive: 50.1 µM [inhibitor, partial curve, poor fit]

**Q.** For CNC(=O)c1cc(C2CC2)nc2onc(C3CCCN3C(=O)Nc3ccc(Cl)cc3)c12 (configuration not stated), which Potency is on record?
**A.** inactive

**Q.** For Cc1ccc(OCc2nc(C3CCCCN3C(=O)CCCc3nc(-c4ccc(C)cc4)no3)no2)cc1 (configuration not stated), which Potency is on record?
**A.** inconclusive: 10 µM [inhibitor, full curve]

**Q.** With Cc1noc(-c2cccc(OC3CN(C(=O)NC4CCCC4)C3)c2)n1 as the compound, how does the Potency read?
**A.** active: 79.4 µM

**Q.** With O=C(NCC1CC1)c1cccc(OC2CN(C3CCCCCC3)C2)c1 as the compound, how does the Potency read?
**A.** inconclusive: 89.1 µM [inhibitor, single point]

**Q.** With COc1ccc(-c2ccnc(N[C@H]3CO[C@H]4[C@@H]3OC[C@H]4OC(=O)Nc3cccc(C(C)=O)c3)n2)cc1 as the compound, how does the Potency read?
**A.** inconclusive: 22.4 µM [inhibitor, full curve, poor fit]

**Q.** With COc1ccc(-c2ccc(C(=O)NCCc3ccc(F)cc3)c(Cl)c2)nn1 as the compound, how does the Potency read?
**A.** inconclusive: 44.7 µM [inhibitor, partial curve, poor fit]

**Q.** With Cc1ccc(S(=O)(=O)NC[C@H]2O[C@H](Cc3cc(-c4cccc(O)c4)on3)CC[C@@H]2O)cc1 as the compound, how does the Potency read?
**A.** inconclusive: 50.1 µM [inhibitor, partial curve, poor fit]

**Q.** With Cc1nn(-c2ccccc2)c2c1C(C)N(C1CCN([S+](=O)([O-])c3ccccc3)CC1)C2=O (configuration not stated) as the compound, how does the Potency read?
**A.** inconclusive: 22.4 µM [inhibitor, full curve, poor fit]

**Q.** With O=C(Cn1nc2c(cc1=O)CCCCC2)NC1CCN(Cc2ccc(F)cc2)CC1 as the compound, how does the Potency read?
**A.** inactive

**Q.** Which Potency does the source give for COc1ccc(F)c(-c2nc(CN(C)CC3(CO)CC3)c(C)o2)c1 here?
**A.** inactive

**Q.** Which Potency does the source give for CC(c1ccccc1)N1Cc2cc(NC(=O)c3ccccc3)ccc2OCC1=O (configuration not stated) here?
**A.** inconclusive: 44.7 µM [inhibitor, partial curve, poor fit]

**Q.** With COCCN1Cc2ccc(NCC(C)C)nc2C(C)(C(=O)Nc2ccncc2)C1 (configuration not stated) as the compound, how does the Potency read?
**A.** inconclusive: 35.5 µM [inhibitor, full curve]

**Q.** With COc1ccc(-c2ccc3c(n2)CN(CCOc2ccccc2)C(=O)CO3)cc1 as the compound, how does the Potency read?
**A.** inconclusive: 100 µM [inhibitor, partial curve]

**Q.** For CC(C)CC(=O)N1CCC2(CC1)NCCc1c2[nH]c2ccccc12, which Potency is on record?
**A.** inconclusive: 50.1 µM [inhibitor, partial curve, poor fit]

**Q.** With COc1ccc(N2CC3(C2)CN(c2ccccc2)C(=O)O3)cc1OC as the compound, how does the Potency read?
**A.** inconclusive: 100 µM [inhibitor, partial curve]

**Q.** For COc1cccc(-c2ccc(CN3CCCC(N[S+](=O)([O-])c4ccccc4)C3)cc2)c1 (configuration not stated), which Potency is on record?
**A.** active: 22.4 µM

**Q.** For CN1Cc2cccn2CC1CNC(=O)c1nn(C)c2ccccc12 (configuration not stated), which Potency is on record?
**A.** inconclusive: 89.1 µM [inhibitor, single point]

**Q.** With CC(C)N1CCC(OCCCNC(=O)C2CCN(c3cnn(C)c(=O)c3)C2)CC1 (configuration not stated) as the compound, how does the Potency read?
**A.** inactive

**Q.** Which Potency does the source give for CS(=O)(=O)c1ccc(-c2cnc([C@@H]3COCCN3Cc3ccccc3O)[nH]2)cc1 here?
**A.** inconclusive: 112 µM [inhibitor, single point]

**Q.** For COc1ccc(O)c(CN2CCC(CO)(Cc3ccccc3Cl)CC2)c1, which Potency is on record?
**A.** inconclusive: 56.2 µM [inhibitor, partial curve, poor fit]

**Q.** Which Potency does the source give for Cc1cc(C)c(S(=O)(=O)NCCn2c(C)cnc2C2CCC2)cc1C here?
**A.** inconclusive: 39.8 µM [inhibitor, partial curve, poor fit]

**Q.** Which Potency does the source give for COc1ccc(C2Cn3nnc(-c4noc(COc5ccccc5)n4)c3CO2)cc1 (configuration not stated) here?
**A.** inactive

**Q.** For Cc1oc(C(O)c2ccccc2F)nc1C(=O)Nc1ccc(C(=O)Nc2ccccc2)cc1 (configuration not stated), which Potency is on record?
**A.** inconclusive: 17.8 µM [inhibitor, full curve, poor fit]

**Q.** With COc1ccc(Nc2cc3c(nc2-c2ccccc2)nc(C(=O)NCCN(C)C)n3C)cn1 as the compound, how does the Potency read?
**A.** inactive

**Q.** Which Potency does the source give for CNC(=O)c1cc(C2CC2)nc2c1c(C1CCCN(C(=O)C3CCCCC3)C1)nn2C (configuration not stated) here?
**A.** inconclusive: 50.1 µM [inhibitor, partial curve, poor fit]

**Q.** For Cn1cnc(S(=O)(=O)N2CCCOCCNC(=O)[C@@H]3CCC[C@@H]32)c1, which Potency is on record?
**A.** inactive

**Q.** Which Potency does the source give for CN(C)C(=O)C1CCc2nnc(-c3ccc(Cl)cc3Cl)n21 (configuration not stated) here?
**A.** inactive

**Q.** With Cn1ncc2c(C(=O)NCCc3c[nH]c4ccccc34)cc(-c3ccc(C(F)(F)F)cc3)nc21 as the compound, how does the Potency read?
**A.** inconclusive: 39.8 µM [inhibitor, partial curve, poor fit]

**Q.** For Cc1nc(-c2ccncc2)ncc1C(C)Nc1ncnc(C)c1C (configuration not stated), which Potency is on record?
**A.** inconclusive: 10 µM [inhibitor, full curve, poor fit]

**Q.** For O=C(NCc1cccc(Cl)c1)[C@@H]1CCCN1c1nccc(Nc2ccccc2Cl)n1, which Potency is on record?
**A.** active: 35.5 µM

**Q.** Which Potency does the source give for CCN1C[C@H]2COc3ccc(C)cc3[C@H]2N(C(=O)CC2CCCC2)CCC1=O here?
**A.** inconclusive: 50.1 µM [inhibitor, partial curve, poor fit]

**Q.** For O=C(C1CN(c2ccc(Cl)cc2)C(=O)N1)N1CCN(Cc2ccccc2)CC1 (configuration not stated), which Potency is on record?
**A.** active: 25.1 µM

**Q.** Which Potency does the source give for CCOc1ccc(C(=O)N2CCC(Cc3nc(-c4cccc(OC)c4)no3)CC2)cc1 here?
**A.** inconclusive: 39.8 µM [inhibitor, partial curve, poor fit]

**Q.** For Cc1ccc(CNC(=O)N2CCCN(S(=O)(=O)c3ccccc3)CCC(=O)NCC2)cc1, which Potency is on record?
**A.** inactive

**Q.** With CCc1cc(=O)n(CC(=O)Nc2ccc(OC)c(OC)c2)c(-c2ccccc2)n1 as the compound, how does the Potency read?
**A.** inconclusive: 28.2 µM [inhibitor, partial curve]

Reference: PubChem BioAssay AID1345083 (National Center for Advancing Translational Sciences (NCATS), 2018)
